Experimental data published in PubChem BioAssay AID1347165 (National Center for Advancing Translational Sciences (NCATS), 2019).
Out of some 220,000 compounds screened, about 5,700 (2.6%) were called active. This list was built around the results that the source calls inconclusive (neither active nor inactive); the mix of calls is not that of the screen. Calls follow the shape of the dose curve; as a rule, active = well fitted inhibition curve with a large enough effect; inconclusive = small, poorly fitted or top-dose-only effect; inactive = no such curve, though single readings can be large or run the other way. Potencies of inconclusive entries are doubtful fits and often do not repeat.

The molecules below were run against Lysine-specific demethylase 5B (Homo sapiens) (UniProt Q9UGL1) (assay: Primary screen for KDM5B Histone Demethylases FDH-coupled qHTS). Conditions: FDH-coupled NADH fluorescence (FDH is formaldehyde dehydrogenase); activity change, negative = inhibition: at 57.7 µM (top of the series) unless noted.
Outline: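 qHTS format, multiple compound concentrations. Buffer 50 mM HEPES pH 7.5/0.01% Tween-20; 200 nM KDM5BΔAP final; 10 min compound preincubation; substrate-mix levels 12.5 µM peptide, 25 µM α-KG, 0.25 mM NAD⁺; 30 min RT; ΔRFU.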
Also: nearly all actives have a fitted effect of over 70% in size.
For activity change, negative = inhibition in this document: 0% is about no effect.
Potency is read from the fitted curve at half-maximal effect; tags tell the direction and shape of the fitted curve.

Chain of UniProt Q9UGL1 (Q9UGL1 whole entry, looked up): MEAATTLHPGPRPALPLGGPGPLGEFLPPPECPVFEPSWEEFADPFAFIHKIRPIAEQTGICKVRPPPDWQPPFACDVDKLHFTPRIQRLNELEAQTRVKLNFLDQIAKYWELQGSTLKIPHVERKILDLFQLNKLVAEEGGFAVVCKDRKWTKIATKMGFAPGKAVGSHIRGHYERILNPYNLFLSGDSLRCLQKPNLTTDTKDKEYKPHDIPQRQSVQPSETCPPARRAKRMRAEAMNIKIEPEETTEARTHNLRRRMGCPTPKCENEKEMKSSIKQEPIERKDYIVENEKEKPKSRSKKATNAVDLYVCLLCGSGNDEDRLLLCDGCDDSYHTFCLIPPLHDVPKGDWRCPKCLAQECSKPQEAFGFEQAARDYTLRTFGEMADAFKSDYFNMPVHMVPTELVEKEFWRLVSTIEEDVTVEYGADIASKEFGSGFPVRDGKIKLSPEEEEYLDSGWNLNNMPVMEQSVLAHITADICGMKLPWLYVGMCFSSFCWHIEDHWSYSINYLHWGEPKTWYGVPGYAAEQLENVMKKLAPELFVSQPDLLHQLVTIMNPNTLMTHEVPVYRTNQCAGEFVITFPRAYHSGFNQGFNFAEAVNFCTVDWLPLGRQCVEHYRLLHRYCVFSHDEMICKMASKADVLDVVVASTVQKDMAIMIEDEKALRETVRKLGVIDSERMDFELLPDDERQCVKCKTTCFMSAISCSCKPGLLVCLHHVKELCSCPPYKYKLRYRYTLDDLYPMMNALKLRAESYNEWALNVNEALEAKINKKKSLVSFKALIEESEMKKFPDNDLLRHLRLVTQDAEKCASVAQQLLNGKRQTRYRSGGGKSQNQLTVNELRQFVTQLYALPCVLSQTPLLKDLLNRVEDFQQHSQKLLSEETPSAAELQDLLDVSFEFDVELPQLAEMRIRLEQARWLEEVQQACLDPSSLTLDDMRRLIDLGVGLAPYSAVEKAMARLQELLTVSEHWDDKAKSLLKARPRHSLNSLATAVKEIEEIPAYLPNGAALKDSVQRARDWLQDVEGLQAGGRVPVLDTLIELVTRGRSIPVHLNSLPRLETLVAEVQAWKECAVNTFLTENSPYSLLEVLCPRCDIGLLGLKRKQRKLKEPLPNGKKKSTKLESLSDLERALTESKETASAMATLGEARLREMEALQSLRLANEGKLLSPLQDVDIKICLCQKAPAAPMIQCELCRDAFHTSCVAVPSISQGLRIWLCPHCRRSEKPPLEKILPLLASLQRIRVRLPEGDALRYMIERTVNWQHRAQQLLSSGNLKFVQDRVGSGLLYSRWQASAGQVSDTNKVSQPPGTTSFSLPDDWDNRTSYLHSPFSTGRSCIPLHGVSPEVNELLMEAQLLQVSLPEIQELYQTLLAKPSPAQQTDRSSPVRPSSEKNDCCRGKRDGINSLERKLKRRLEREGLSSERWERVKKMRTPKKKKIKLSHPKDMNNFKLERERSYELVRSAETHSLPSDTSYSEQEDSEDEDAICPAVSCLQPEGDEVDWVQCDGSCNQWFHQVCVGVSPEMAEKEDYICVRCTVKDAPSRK

Row | Compound | Potency | activity change, negative = inhibition
1 | COc1ncccc1-c1cnc2[nH]cc(CC(N)=O)c2c1 | active: 31.6 µM | 
2 | CCc1cc(=O)oc2c(C)c(OC(C)C(=O)NC3CC(C)(C)NC(C)(C)C3)ccc12 (centres undefined) | inconclusive: 20 µM [inhibitor, partial curve, poor fit] | 
3 | COc1ccc(NC(=O)[C@@H]2C[C@@H](c3cccc(C(F)(F)F)c3)N(Cc3cnn(C)c3)C2)cc1 | inactive | 
4 | OC1(CNCCc2nc(-c3cccnc3)n[nH]2)CNCCOC1 (centres undefined) | inconclusive: 14.1 µM [inhibitor, partial curve, poor fit] | 
5 | CSc1ccc(CCNC(=O)c2cc(C)nc3c2c(C)nn3-c2cccc(F)c2)cc1 | inconclusive: 12.6 µM [inhibitor, partial curve, poor fit] | 
6 | O=C(O)CN1C(=O)[C@@H]2C[C@@H](CN2C(=O)c2ccccc2)Oc2ccccc21 | inactive | 
7 | CC1(C)CC(=O)C2=C(C1)Nc1nc(N)[nH]c(=O)c1C2c1ccc2c(c1)OCO2 (centres undefined) | inactive | 
8 | F[C@@H]1CN(C2CCOCC2)C[C@@H]1OCc1nc2ccccc2o1 | inconclusive: 28.2 µM [inhibitor, partial curve, poor fit] | 
9 | CN(C)c1ccc(NC(=O)CCn2ccn3nc4c(c3c2=O)CCCC4)cc1 | inactive | 
10 | CCc1ccc(NC(=O)CSc2nc(C)c(C(=O)Nc3ccccc3)c(-c3ccc(OC)c(OC)c3)c2C#N)cc1 | inconclusive: 7.94 µM [inhibitor, partial curve, poor fit] | 
11 | CSCC(=O)N[C@H]1CCN2C(=O)c3cc(-c4ccccc4)ccc3NC(=O)[C@H]12 | inactive | 
12 | O=C(NC1CCCC1)N[C@@H]1C[C@H](Cn2cc(C3CC3)nn2)[C@@H](O)[C@H]1O | inconclusive: 28.2 µM [inhibitor, partial curve, poor fit] | 
13 | Cn1c(-c2ccc(CN3CC[C@H]4CNC[C@H]43)o2)nc2ccccc21 | inconclusive: 25.1 µM [inhibitor, partial curve, poor fit] | 
14 | COc1ccccc1CN1CCCn2nc(C)c(-c3ccccc3C(N)=O)c21 | active: 31.6 µM | 
15 | COc1cccc(CNC(=O)CN2C(=O)C(C)=C(c3ccc(C)c(C)c3)S2(=O)=O)c1 | inconclusive: 28.2 µM [inhibitor, single point] | 
16 | COc1ccc(-c2ccc3nnc(CNC(=O)c4ccccc4Cl)n3n2)cc1 | active: 28.2 µM | 
17 | CC(C)(C)NC(=O)N1CCOc2ccc(CN3CCc4ccccc4C3)cc2C1 | inactive | 
18 | CC(=O)NCCNC(=O)CCCc1nnc2n(CC(C)C)c(=O)c3sccc3n12 | inconclusive: 1.12 µM [inhibitor, full curve, poor fit] | 
19 | O=C(OCc1cc(=O)n2c(n1)sc1ccccc12)c1ccc(O)cc1O | inconclusive: 20 µM [inhibitor, partial curve, poor fit] | 
20 | Cn1c(=O)c2[nH]c(N=NNc3ccccc3F)nc2n(C)c1=O | inconclusive: 39.8 µM [inhibitor, partial curve, poor fit] | 
21 | COc1cccc(NC(=O)Cn2c(=O)n(Cc3ccc(F)cc3)c(=O)c3sc4ccccc4c32)c1 | inconclusive: 17.8 µM [inhibitor, partial curve, poor fit] | 
22 | Cc1[nH]cnc1C(=O)N1CCC2(CC1)NC(=O)CC2C(=O)O (centres undefined) | inconclusive: 3.98 µM [inhibitor, partial curve] | 
23 | COc1cccc(CN2C(=O)CCCCC2C(=O)NCCc2c[nH]c3ccc(OC)cc23)c1 (centres undefined) | inconclusive: 6.31 µM [inhibitor, partial curve] | 

Row | Compound | Potency | activity change, negative = inhibition
24 | CCOC(=O)c1c(C)n(CC(=O)OC)c2ccc(O)cc12 | inactive | 
25 | O=C(Nc1ccc(I)cc1C(F)(F)F)c1ccc(-c2ccccc2)cc1 | inactive | 
26 | Cc1c(NC(=O)c2cccs2)cccc1-c1nc2cc(Cl)ccc2o1 | inactive | 
27 | c1ccc(-c2ccc(CN3CCNCC3)s2)cc1 | inactive | 
28 | Cc1noc(-c2cccs2)c1C(=O)NC(C)c1ccccc1 (centres undefined) | active: 25.1 µM | 
29 | CCOc1ccc(C(=O)NC2(C(=O)OC)CCCCC2)cc1OC | inactive | 
30 | CCOc1ccc(NC(=O)c2nc(S(=O)(=O)Cc3ccccc3F)ncc2Cl)cc1 | inconclusive: 3.98 µM [inhibitor, full curve, poor fit] | 
31 | NNC(=O)CSc1nnnn1-c1ccccc1 | inconclusive: 39.8 µM [inhibitor, single point] | 
32 | COc1ccc(-c2cc(-c3c(C)noc3C)c3cncn3c2)cc1 | active: 31.6 µM | 
33 | CCCCCCC(C)OC(=O)Nc1cccc2ccccc12 (centres undefined) | inconclusive: 35.5 µM [inhibitor, single point] | 
34 | COCCN[C@H]1[C@@H]2OC[C@@H](O2)[C@@H](NCc2ccc(-c3ccccc3)cc2)[C@@H]1O | inconclusive: 11.2 µM [inhibitor, partial curve] | 
35 | CCc1ccc(NC(=O)CSc2nc(-c3ccc(C)cc3)nc3c2Cc2c(CO)cnc(C)c2O3)cc1 |  | inconclusive: -30.7% [inhibitor]
36 | O=C(c1cccc(Cl)c1)N1CCCC2(C1)NC(=O)N(Cc1ccccc1)C2=O (centres undefined) | inactive | 
37 | COCc1nnc(NC(=O)CCn2ccc3ccc(Br)cc32)s1 | inactive | 
38 | COc1ccc(S(=O)(=O)N2CCSC2c2cc(OC)ccc2OC)cc1 (centres undefined) | inactive | 
39 | NC1CCc2nn(CC(=O)N3CCc4ccccc43)c(=O)n2CC1 (centres undefined) | inactive | 
40 | Fc1ccccc1-c1cnc2n[nH]c(-c3ccc4c(c3)OCO4)c2n1 | inconclusive: 35.5 µM [inhibitor, partial curve, poor fit] | 
41 | Fc1ccc(-c2cc(-c3ccc(F)cc3)c3c(n2)-c2cc(F)ccc2OC3)cc1 | inconclusive: 2 µM [inhibitor, full curve, poor fit] | 
42 | Fc1ccc(Nc2nc(-c3cccc(Cl)c3)c3c(n2)-c2ccccc2OC3)c(F)c1 |  | inconclusive: -37.2% [inhibitor]
43 | CCOCC1(C)COc2ccc(C(=O)NCCc3ccccc3)cc2N1 (centres undefined) | active: 39.8 µM | 
44 | CCCCNC(=O)Cc1csc2nc(C)c(-c3cc(C)n(-c4cc(F)ccc4C)n3)c(=O)n12 | inconclusive: 31.6 µM [inhibitor, partial curve, poor fit] | 
45 | Cc1ccc(S(=O)(=O)N2CCN(C(=O)NCC3CN(CC(C)C)CCO3)CC2)cc1 (centres undefined) | inactive | 
46 | N#C/C(=C\c1ccccc1OC(=O)c1cccc2ccccc12)C(=O)Nc1ccccc1C(F)(F)F | inactive | 

Row | Compound | Potency | activity change, negative = inhibition
47 | COc1ccc(CNC(=O)CCc2c(C)nc3cc(-c4ccc(OC)cc4OC)nn3c2C)cc1 | inconclusive: 31.6 µM [inhibitor, partial curve, poor fit] | 
48 | Cc1cc(=O)oc2cc(OC(C(=O)O)c3ccccc3)ccc12 (centres undefined) | inconclusive: 28.2 µM [inhibitor, partial curve, poor fit] | 
49 | COC1CCN(CC2CCCCCN2C(=O)NC2CCCC2)CC1 (centres undefined) | inactive | 
50 | COCc1ccc2c(c1)c(OC(C)(C)C(=O)NCCN1CCOCC1)nn2CCC(C)C | active: 25.1 µM | 
51 | COc1ccc(C2Cn3nnc(-c4nc(-c5ccc(OC(C)C)cc5)no4)c3CO2)cc1 (centres undefined) | inconclusive: 22.4 µM [inhibitor, partial curve, poor fit] | 
52 | CCc1nc2c(c(-c3ccc(Cl)cc3)n1)CN(Cc1ccc(F)cc1)CC2 | inconclusive: 20 µM [inhibitor, partial curve, poor fit] | 
53 | COc1ccc2cc(C(=O)N3CCN(S(=O)(=O)c4ccccc4)CC3)c(C)nc2c1 | inconclusive: 31.6 µM [inhibitor, partial curve, poor fit] | 
54 | CSc1nc2ccc(NC(=O)c3ccccn3)cc2s1 | inconclusive: 35.5 µM [inhibitor, single point] | 
55 | O=C(/C=C/c1ccccc1O)c1ccc(Br)cc1 | inconclusive: 25.1 µM [inhibitor, partial curve, poor fit] | 
56 | CS(=O)(=O)c1cccc(C(=O)N2CCCCCC2)c1 | inactive | 
57 | COc1ccc(-c2noc(-c3cccn3CC(=O)N3CCN(c4ccccc4OC)CC3)n2)cc1F | inconclusive: 31.6 µM [inhibitor, single point] | 
58 | COc1ccc(-c2nc(CSCC(=O)NCC(OC)OC)c(C)o2)cc1OC | inconclusive: 17.8 µM [inhibitor, partial curve, poor fit] | 
59 | O=c1ncn(CC2CC2)c2ccc(-c3ccc(Cl)cc3)nc12 | active: 39.8 µM | 
60 | Cc1nc(-c2cccc(F)c2)sc1CCNC(=O)C1CCCC1 | inconclusive: 35.5 µM [inhibitor, single point] | 
61 | O=C(COc1ccc(F)cc1)Nc1ccc2oc(-c3ccccc3F)nc2c1 | inactive | 
62 | O=C(NC1CCN(c2cc(-c3ccc(Cl)cc3)[nH]n2)C1)c1ccccc1Br (centres undefined) | inconclusive: 4.47 µM [inhibitor, partial curve] | 
63 | O=C(c1ccn[nH]1)N1CC(c2ncc3c(-c4cccc(C(F)(F)F)c4)nccn23)C1 | inactive | 
64 | CCC(C)(C)NC(=O)C(NS(=O)(=O)c1cccs1)c1ccccc1 (centres undefined) |  | inconclusive: -31% [inhibitor]
65 | Cc1ccccc1Oc1ccc(S(=O)(=O)N2CCCC2)cn1 | inactive | 
66 | N#C/C(=C(/O)CO/N=C/c1ccccc1Cl)c1nc2ccccc2[nH]1 | inconclusive: 25.1 µM [inhibitor, single point] | 
67 | COc1cc(C(=O)OCC(=O)c2ccccc2)ccc1OCc1ccc(Cl)cc1 | inconclusive: 39.8 µM [inhibitor, single point] | 
68 | CC(=O)c1ccc(OCCC(=O)OCc2ccc(C#N)cc2F)cc1 | inactive | 
69 | CCOC(=O)c1ccc(-n2c(CCC(=O)O)ccc2-c2ccccc2)cc1O | inconclusive: 25.1 µM [inhibitor, partial curve, poor fit] | 
